Target: T1, BaIMPDH (Bacillus anthracis, UniProt A0A6L8P2U9)
Assay: biochemical
Format: biochemical
Settings: not given

Compound | Ki [nM]
C=C(C)c1cccc(C(C)(C)NC(=O)Nc2ccc(Cl)c(C(=O)N(C)C)c2)c1 [P41] | 37 ± 23
C[C@H](Oc1ccccc1Cl)C(=O)Nc1ccc2oc(-c3ccncc3)nc2c1 [Q77] | 130 ± 20

Same assay, conditions: read-out: Ki,app BaIMPDH

Compound | Ki [nM]
C=C(C)c1cccc(C(C)(C)NC(=O)Nc2ccc3ccccc3n2)c1 [P54] | 400 ± 100

Target: T1, BaIMPDH
Assay: not given
Settings: read-out: B. anthracis Ki,app; cited from earlier work

Compound | Ki [nM]
C[C@H](Nc1cccc(Cl)c1Cl)C(=O)Nc1ccc2oc(-c3ccncc3)nc2c1 [Q67] | 5 ± 1

Same assay, conditions: read-out: Ki,app BaIMPDH; cited from earlier work

Compound | Ki [nM]
C=C(C)c1cccc(C(C)(C)NC(=O)Nc2ccc(Cl)c(Cl)c2)c1 [P13] | 36 ± 7
C=C(C)c1cccc(C(C)(C)NC(=O)Nc2ccc3ccccc3c2)c1 [P14] | 47 ± 4
C=C(C)c1cccc(C(C)(C)NC(=O)Nc2cccc(Cl)c2)c1 [P15] | 215 ± 100
C=C(C)c1cccc(C(C)(C)NC(=O)Nc2ccc(Cl)c(C(N)=O)c2)c1 [P16] | 70 ± 30
C=C(C)c1cccc(C(C)(C)NC(=O)Nc2cccc3ccccc23)c1 [P17] | > 5000
CC(C)c1cccc(C(C)(C)NC(=O)Nc2ccc3ccccc3c2)c1 [P22] | > 5000
CC(=O)c1cccc(C(C)(C)NC(=O)Nc2ccc3cccnc3c2)c1 [P24] | 30 ± 10
CC(=O)c1cccc(C(C)(C)NC(=O)Nc2ccc(Cl)c(C(N)=O)c2)c1 [P25] | 300 ± 100
CC(=NO)c1cccc(C(C)(C)NC(=O)Nc2ccc3cccnc3c2)c1 [P27] | 40 ± 10
CC(=NO)c1cccc(C(C)(C)NC(=O)Nc2ccc(Cl)cc2)c1 [P37] | 20 ± 6
C=C(C)c1cccc(C(C)(C)NC(=O)Nc2ccccc2)c1 [P38] | 570 ± 120
C=C(C)c1cccc(C(C)(C)NC(=O)Nc2ccccc2Cl)c1 [P39] | > 5000
C=C(C)c1cccc(C(C)(C)NC(=O)Nc2ccc(Cl)c(C(=O)NC)c2)c1 [P42] | 180 ± 90
C=C(C)c1cccc(C(C)(C)NC(=O)Nc2ccc3ncccc3c2)c1 [P55] | 85 ± 15
C=C(C)c1cccc(C(C)(C)NC(=O)Nc2cnc3ccccc3c2)c1 [P59] | 490 ± 120
CON=C(C)c1cccc(C(C)(C)NC(=O)Nc2ccc(Cl)c(C(N)=O)c2)c1 [P74] | 80 ± 20
CC(=O)c1cccc(C(C)(C)NC(=O)Nc2ccc(Cl)c(C(F)(F)F)c2)c1 [P80] | 30 ± 10
CC(=NO)c1cccc(C(C)(C)NC(=O)Nc2ccc(Cl)c(C(F)(F)F)c2)c1 [P82] | 2 ± 0.5
CC(=NO)c1cccc(C(C)(C)NC(=O)Nc2ccc(Cl)c([N+](=O)[O-])c2)c1 [P96] | 14 ± 1
C=C(C)c1cccc(C(C)(C)NC(=O)Nc2ccc(OC)cc2)c1 [P102] | 230 ± 20
C=C(C)c1cccc(C(C)(C)NC(=O)Nc2ccc(C(C)(C)C)cc2)c1 [P104] | > 5000
C=C(C)c1cccc(C(C)(C)NC(=O)Nc2ccc(Cl)c(OC)c2)c1 [P105] | 40 ± 10

Test system: B. anthracis
Assay: not given
Settings: cited from earlier work

Compound | B. anthracis MIC [µM]
C=C(C)c1cccc(C(C)(C)NC(=O)Nc2ccc(Cl)c(C(=O)N(C)C)c2)c1 [P41] | 25
C[C@H](Nc1cccc(Cl)c1Cl)C(=O)Nc1ccc2oc(-c3ccncc3)nc2c1 [Q67] | 12
